# In US20210130346A1, “Bromodomain Inhibitors” (AbbVie Inc., priority 2017, published 2021):
# Molecular target: BRD4 (BDII_E352-M457) (Homo sapiens, UniProt O60885)
# Experiment: TR-FRET bromodomain binding assay, BRD4 second bromodomain (BDII)
# Details: mean Ki; 4 nM His tagged BRD4 (BDII_E352-M457), 30 nM Alexa647 probe; Ki calculated from IC50, probe Kd and probe concentration
# Procedure: A time-resolved fluorescence resonance energy transfer (TR-FRET) assay was used to determine the affinities of compounds of the Examples listed in Table 1 for each bromodomain of BRD4. […] An Alexa647-labeled BET-inhibitor was used as the fluorescent probe in the assay.
# Compound dilution series were prepared in DMSO via an approximately 3-fold serial dilution. Compound dilutions were added directly into white, low-volume assay plates (Perkin Elmer Proxiplate 384 Plus# 6008280) using a Labcyte Echo in conjunction with Labcyte Access and Thermo Multidrop CombinL robotics. Compounds were then suspended in eight microliters (μL) of assay buffer (20 mM Sodium Phosphate, pH 6.0, 50 mM NaCl, 1 mM Ethylenediaminetetraacetic acid disodium salt dihydrate, 0.01% Triton X-100, 1 mM DL-Dithiothreitol) containing His-tagged bromodomain, Europium-conjugated anti-His antibody (Invitrogen PV5596) and Alexa-647-conjugated probe.
# After a one-hour equilibration at room temperature, TR-FRET ratios were determined using an Envision multilabel plate reader (Ex 340, Em 495/520).
# TR-FRET data were normalized to the means of 24 no-compound controls (“high”) and 8 controls containing 1 μM un-labeled probe (“low”). Percent inhibition was plotted as a function of compound concentration and the data were fit with the 4 parameter logistic equation to obtain IC50s. Inhibition constants (Ki) were calculated from the IC50s, probe Kd and probe concentration.
row,SMILES,Ki [nM]
1,"CN1C(=O)[C@]2(C[C@@H]2c2cn(C)c(=O)c3[nH]c(C(=O)O)cc23)c2ccccc21 (single isomer, unassigned) [Example 6]",2750
2,"CN1C(=O)[C@@]2(C[C@H]2c2cn(C)c(=O)c3[nH]c(C(=O)O)cc23)c2ccccc21 (single isomer, unassigned) [Example 7]",5490
3,"CN1C(=O)[C@@]2(C[C@H]2c2cn(C)c(=O)c3[nH]c(C(=O)NC4CC4)cc23)c2cc(F)ccc21 (single isomer, unassigned) [Example 18]",418
4,"Cn1cc([C@H]2C[C@]23C(=O)Nc2ccccc23)c2cc(C(=O)NC3CC3)[nH]c2c1=O (single isomer, unassigned) [Example 20]",12.8
5,"Cn1cc([C@@H]2C[C@@]23C(=O)Nc2ccccc23)c2cc(C(=O)NC3CC3)[nH]c2c1=O (single isomer, unassigned) [Example 21]",1150
6,"CN1C(=O)[C@]2(C[C@@H]2c2cn(C)c(=O)c3[nH]c(C(=O)NC4CC4)cc23)c2ccccc21 [Example 3, N-cyclopropyl-6-methyl-4-[(1S,2R)-1′-methyl-2′-oxo-1′,2′-dihydrospiro[cyclopropane-1,3′-indol]-2-yl]-7-oxo-6,7-dihydro-1H-pyrrolo[2,3-c]pyridine-2-carboxamide]",4.53
7,"CN1C(=O)[C@@]2(C[C@H]2c2cn(C)c(=O)c3[nH]c(C(=O)NC4CC4)cc23)c2ccccc21 [Example 4, N-cyclopropyl-6-methyl-4-[(1R,2S)-1′-methyl-2′-oxo-1′,2′-dihydrospiro[cyclopropane-1,3′-indol]-2-yl]-7-oxo-6,7-dihydro-1H-pyrrolo[2,3-c]pyridine-2-carboxamide]",267
8,"CN1C(=O)[C@]2(C[C@@H]2c2cn(C)c(=O)c3[nH]c(C(=O)NC4CC4)cc23)c2cc(F)ccc21 [Example 17, N-cyclopropyl-4-[(1S,2R)-5′-fluoro-′-methyl-2′-oxo-1′,2′-dihydrospiro[cyclopropane-1,3′-indol]-2-yl]-6-methyl-7-oxo-6,7-dihydro-1H-pyrrolo[2,3-c]pyridine-2-carboxamide]",3.25
9,"Cn1cc([C@H]2C[C@]23C(=O)N(CC(F)(F)F)c2ccccc23)c2cc(C(=O)NC3CC3)[nH]c2c1=O [Example 24, N-cyclopropyl-6-methyl-7-oxo-4-[(1S,2R)-2′-oxo-′-(2,2,2-trifluoroethyl)-1′,2′-dihydrospiro[cyclopropane-1,3′-indol]-2-yl]-6,7-dihydro-1H-pyrrolo[2,3-c]pyridine-2-carboxamide]",5.98
10,"Cn1cc([C@@H]2C[C@@]23C(=O)N(CC(F)(F)F)c2ccccc23)c2cc(C(=O)NC3CC3)[nH]c2c1=O [Example 25, N-cyclopropyl-6-methyl-7-oxo-4-[(1R,2S)-2′-oxo-′-(2,2,2-trifluoroethyl)-1′,2′-dihydrospiro[cyclopropane-1,3′-indol]-2-yl]-6,7-dihydro-1H-pyrrolo[2,3-c]pyridine-2-carboxamide]",1170

# Further lines, results first:
row,Ki [nM],SMILES
1,2.88,"CN1C(=O)[C@]2(C[C@@H]2c2cn(C)c(=O)c3[nH]c(-c4cnn(C)c4)cc23)c2ccccc21 [Example 34, (1S,2R)-1′-methyl-2-[6-methyl-2-(1-methyl-1H-pyrazol-4-yl)-7-oxo-6,7-dihydro-1H-pyrrolo[2,3-c]pyridin-4-yl]spiro[cyclopropane-1,3′-indol]-2′(1H)-one]"
2,198,"CN1C(=O)[C@@]2(C[C@H]2c2cn(C)c(=O)c3[nH]c(-c4cnn(C)c4)cc23)c2ccccc21 [Example 35, (1R,2S)-1′-methyl-2-[6-methyl-2-(1-methyl-1H-pyrazol-4-yl)-7-oxo-6,7-dihydro-1H-pyrrolo[2,3-c]pyridin-4-yl]spiro[cyclopropane-1,3′-indol]-2′(1H)-one]"
3,6.28,"CN1C(=O)[C@]2(C[C@@H]2c2cn(C)c(=O)c3[nH]c(-c4cccnc4)cc23)c2ccccc21 [Example 48, (1S,2R)-1′-methyl-2-[6-methyl-7-oxo-2-(pyridin-3-yl)-6,7-dihydro-1H-pyrrolo[2,3-c]pyridin-4-yl]spiro[cyclopropane-1,3′-indol]-2′(1H)-one]"
4,29.4,"CN1C(=O)[C@@]2(C[C@H]2c2cn(C)c(=O)c3[nH]c(-c4cccnc4)cc23)c2ccccc21 [Example 49, (1R,2S)-1′-methyl-2-[6-methyl-7-oxo-2-(pyridin-3-yl)-6,7-dihydro-1H-pyrrolo[2,3-c]pyridin-4-yl]spiro[cyclopropane-1,3′-indol]-2′(1H)-one]"
5,2.04,"CN1C(=O)[C@]2(C[C@@H]2c2cn(C)c(=O)c3[nH]c(-c4ccnc(C(F)(F)F)c4)cc23)c2ccccc21 [Example 52, (1S,2R)-1′-methyl-2-{6-methyl-7-oxo-2-[2-(trifluoromethyl)pyridin-4-yl]-6,7-dihydro-1H-pyrrolo[2,3-c]pyridin-4-yl}spiro[cyclopropane-1,3′-indol]-2′(1H)-one]"
6,24.4,"CN1C(=O)[C@@]2(C[C@H]2c2cn(C)c(=O)c3[nH]c(-c4ccnc(C(F)(F)F)c4)cc23)c2ccccc21 [Example 53, (1R,2S)-1′-methyl-2-{6-methyl-7-oxo-2-[2-(trifluoromethyl)pyridin-4-yl]-6,7-dihydro-1H-pyrrolo[2,3-c]pyridin-4-yl}spiro[cyclopropane-1,3′-indol]-2′(1H)-one]"
